# Laboratory results reported in publication PMC12820563, “FoxP3 forms a head-to-head dimer in vivo and stabilizes its multimerization on adjacent microsatellites”.
# The other results are listed elsewhere or left out.
# Molecular target: T1, MBP-FoxP1dN (Mus musculus, UniProt P58462 326-579)
# T1 sequence: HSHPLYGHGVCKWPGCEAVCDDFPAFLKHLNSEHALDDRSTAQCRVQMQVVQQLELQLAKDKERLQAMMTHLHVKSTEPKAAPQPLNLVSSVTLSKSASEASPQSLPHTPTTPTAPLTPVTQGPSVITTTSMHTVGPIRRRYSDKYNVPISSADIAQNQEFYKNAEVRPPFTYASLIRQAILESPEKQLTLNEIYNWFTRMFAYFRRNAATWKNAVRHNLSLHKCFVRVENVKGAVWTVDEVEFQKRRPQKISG
# Experiment: PD-seq (MBP pull-down with sequencing); 20 mM Tris-HCl pH 7.5, 100 mM NaCl, 1.5 mM MgCl2, 0.4 uM protein, 0.1 uM dsDNA library, 30 min, room temperature, amylose pull-down; high values mean tight binding
# Conditions: protein: recombinant; tags: His6-MBP; chain copies: 2; dsDNA, one strand shown
# How it was run: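 Binding is the reads-per-million enrichment of pull-down relative to input, pooled across replicates. For this, 0.4 µM His6-MBP-tagged mouse FoxP3 or FoxP1 fragment lacking the N-terminus, made in E. coli, was incubated with 0.1 µM Klenow-filled double-stranded degenerate DNA library for 30 min at room temperature in Tris pH 7.5 buffer with NaCl and MgCl2. Complexes bound to amylose resin were washed three times before proteinase K released the DNA for PCR barcoding and Illumina sequencing.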
row,Sequence,binding signal
1,GATGATTGTTCTCCCAGCTGATGAATTTTCTGAGTCGAGTAAACAAATTTTCCTAATCTTTCTGTTCAAGCGCCATCTAC,0.999 RPM ratio (pull-down/input)
2,GATGATTGTTCTCCCAGCTGATGAATTACACTAGTCGAGTAAACAAATTTTCCTAATCTTTCTGTTCAAGCGCCATCTAC,1.11 RPM ratio (pull-down/input)
3,GATGATTGTTCTCCCAGCTGATGAATTGGTTGGGTCGAGTAAACAAATTTTCCTAATCTTTCTGTTCAAGCGCCATCTAC,0.925 RPM ratio (pull-down/input)
4,GATGATTGTTCTCCCAGCTGATGAATTATCTACATCGAGTAAACAAATTTTCCTAATCTTTCTGTTCAAGCGCCATCTAC,1.12 RPM ratio (pull-down/input)
5,GATGATTGTTCTCCCAGCTGATGAATTCATGGTATCGAGTAAACAAATTTTCCTAATCTTTCTGTTCAAGCGCCATCTAC,0.938 RPM ratio (pull-down/input)
6,GATGATTGTTCTCCCAGCTGATGAATTAGGCATCTCGAGTAAACAAATTTTCCTAATCTTTCTGTTCAAGCGCCATCTAC,1.03 RPM ratio (pull-down/input)
7,GATGATTGTTCTCCCAGCTGATGAATTCACCTAATCGAGTAAACAAATTTTCCTAATCTTTCTGTTCAAGCGCCATCTAC,0.986 RPM ratio (pull-down/input)
8,GATGATTGTTCTCCCAGCTGATGAATTAACGGTGTCGAGTAAACAAATTTTCCTAATCTTTCTGTTCAAGCGCCATCTAC,0.934 RPM ratio (pull-down/input)
9,GATGATTGTTCTCCCAGCTGATGAATTTTGTTTGTCGAGTAAACAAATTTTCCTAATCTTTCTGTTCAAGCGCCATCTAC,2.66 RPM ratio (pull-down/input)
10,GATGATTGTTCTCCCAGCTGATGAATTAACGGAATCGAGTAAACAAATTTTCCTAATCTTTCTGTTCAAGCGCCATCTAC,1.06 RPM ratio (pull-down/input)
11,GATGATTGTTCTCCCAGCTGATGAATTACCCGATTCGAGTAAACAAATTTTCCTAATCTTTCTGTTCAAGCGCCATCTAC,0.883 RPM ratio (pull-down/input)
12,GATGATTGTTCTCCCAGCTGATGAATTGTTGTCCTCGAGTAAACAAATTTTCCTAATCTTTCTGTTCAAGCGCCATCTAC,2.28 RPM ratio (pull-down/input)
13,GATGATTGTTCTCCCAGCTGATGAATTATCTACCTCGAGTAAACAAATTTTCCTAATCTTTCTGTTCAAGCGCCATCTAC,0.893 RPM ratio (pull-down/input)
14,GATGATTGTTCTCCCAGCTGATGAATTTGTGCCTTCGAGTAAACAAATTTTCCTAATCTTTCTGTTCAAGCGCCATCTAC,1.17 RPM ratio (pull-down/input)
15,GATGATTGTTCTCCCAGCTGATGAATTGTTTCTATCGAGTAAACAAATTTTCCTAATCTTTCTGTTCAAGCGCCATCTAC,1.39 RPM ratio (pull-down/input)
16,GATGATTGTTCTCCCAGCTGATGAATTACTACGCTCGAGTAAACAAATTTTCCTAATCTTTCTGTTCAAGCGCCATCTAC,1.01 RPM ratio (pull-down/input)
17,GATGATTGTTCTCCCAGCTGATGAATTGACTCTATCGAGTAAACAAATTTTCCTAATCTTTCTGTTCAAGCGCCATCTAC,1.1 RPM ratio (pull-down/input)
18,GATGATTGTTCTCCCAGCTGATGAATTTTCTCTATCGAGTAAACAAATTTTCCTAATCTTTCTGTTCAAGCGCCATCTAC,0.946 RPM ratio (pull-down/input)
19,GATGATTGTTCTCCCAGCTGATGAATTAACTCACTCGAGTAAACAAATTTTCCTAATCTTTCTGTTCAAGCGCCATCTAC,0.933 RPM ratio (pull-down/input)
20,GATGATTGTTCTCCCAGCTGATGAATTAGTGCCATCGAGTAAACAAATTTTCCTAATCTTTCTGTTCAAGCGCCATCTAC,1 RPM ratio (pull-down/input)
21,GATGATTGTTCTCCCAGCTGATGAATTGCCGTCTTCGAGTAAACAAATTTTCCTAATCTTTCTGTTCAAGCGCCATCTAC,0.938 RPM ratio (pull-down/input)

row,Sequence,binding signal
1,GATGATTGTTCTCCCAGCTGATGAATTCCTTTAGTCGAGTAAACAAATTTTCCTAATCTTTCTGTTCAAGCGCCATCTAC,0.819 RPM ratio (pull-down/input)
2,GATGATTGTTCTCCCAGCTGATGAATTCCTAACGTCGAGTAAACAAATTTTCCTAATCTTTCTGTTCAAGCGCCATCTAC,0.908 RPM ratio (pull-down/input)
3,GATGATTGTTCTCCCAGCTGATGAATTCTGAGTCTCGAGTAAACAAATTTTCCTAATCTTTCTGTTCAAGCGCCATCTAC,0.814 RPM ratio (pull-down/input)
4,GATGATTGTTCTCCCAGCTGATGAATTAGCGAGATCGAGTAAACAAATTTTCCTAATCTTTCTGTTCAAGCGCCATCTAC,0.803 RPM ratio (pull-down/input)
5,GATGATTGTTCTCCCAGCTGATGAATTTGTCCTGTCGAGTAAACAAATTTTCCTAATCTTTCTGTTCAAGCGCCATCTAC,0.967 RPM ratio (pull-down/input)
6,GATGATTGTTCTCCCAGCTGATGAATTCAGCATATCGAGTAAACAAATTTTCCTAATCTTTCTGTTCAAGCGCCATCTAC,1 RPM ratio (pull-down/input)
7,GATGATTGTTCTCCCAGCTGATGAATTATCGAAGTCGAGTAAACAAATTTTCCTAATCTTTCTGTTCAAGCGCCATCTAC,0.927 RPM ratio (pull-down/input)
8,GATGATTGTTCTCCCAGCTGATGAATTTGGGCCTTCGAGTAAACAAATTTTCCTAATCTTTCTGTTCAAGCGCCATCTAC,0.874 RPM ratio (pull-down/input)
9,GATGATTGTTCTCCCAGCTGATGAATTTGTAGCCTCGAGTAAACAAATTTTCCTAATCTTTCTGTTCAAGCGCCATCTAC,1.08 RPM ratio (pull-down/input)
10,GATGATTGTTCTCCCAGCTGATGAATTCGTGAATTCGAGTAAACAAATTTTCCTAATCTTTCTGTTCAAGCGCCATCTAC,0.888 RPM ratio (pull-down/input)
11,GATGATTGTTCTCCCAGCTGATGAATTTGTCAAATCGAGTAAACAAATTTTCCTAATCTTTCTGTTCAAGCGCCATCTAC,1.17 RPM ratio (pull-down/input)
12,GATGATTGTTCTCCCAGCTGATGAATTAGTACTGTCGAGTAAACAAATTTTCCTAATCTTTCTGTTCAAGCGCCATCTAC,1 RPM ratio (pull-down/input)
13,GATGATTGTTCTCCCAGCTGATGAATTCTGGTCTTCGAGTAAACAAATTTTCCTAATCTTTCTGTTCAAGCGCCATCTAC,0.828 RPM ratio (pull-down/input)
14,GATGATTGTTCTCCCAGCTGATGAATTCGGGGAGTCGAGTAAACAAATTTTCCTAATCTTTCTGTTCAAGCGCCATCTAC,0.762 RPM ratio (pull-down/input)
15,GATGATTGTTCTCCCAGCTGATGAATTCGGGTTATCGAGTAAACAAATTTTCCTAATCTTTCTGTTCAAGCGCCATCTAC,0.898 RPM ratio (pull-down/input)
16,GATGATTGTTCTCCCAGCTGATGAATTCGTACAATCGAGTAAACAAATTTTCCTAATCTTTCTGTTCAAGCGCCATCTAC,1.16 RPM ratio (pull-down/input)
17,GATGATTGTTCTCCCAGCTGATGAATTCGCAGCTTCGAGTAAACAAATTTTCCTAATCTTTCTGTTCAAGCGCCATCTAC,0.825 RPM ratio (pull-down/input)
18,GATGATTGTTCTCCCAGCTGATGAATTAGTTTAGTCGAGTAAACAAATTTTCCTAATCTTTCTGTTCAAGCGCCATCTAC,0.952 RPM ratio (pull-down/input)
19,GATGATTGTTCTCCCAGCTGATGAATTTCATGTTTCGAGTAAACAAATTTTCCTAATCTTTCTGTTCAAGCGCCATCTAC,0.998 RPM ratio (pull-down/input)
20,GATGATTGTTCTCCCAGCTGATGAATTAAAGTTCTCGAGTAAACAAATTTTCCTAATCTTTCTGTTCAAGCGCCATCTAC,0.927 RPM ratio (pull-down/input)
21,GATGATTGTTCTCCCAGCTGATGAATTACACCCCTCGAGTAAACAAATTTTCCTAATCTTTCTGTTCAAGCGCCATCTAC,1.13 RPM ratio (pull-down/input)

row,Sequence,binding signal
1,GATGATTGTTCTCCCAGCTGATGAATTAGGGCTTTCGAGTAAACAAATTTTCCTAATCTTTCTGTTCAAGCGCCATCTAC,0.909 RPM ratio (pull-down/input)
2,GATGATTGTTCTCCCAGCTGATGAATTGCGCTCATCGAGTAAACAAATTTTCCTAATCTTTCTGTTCAAGCGCCATCTAC,1.09 RPM ratio (pull-down/input)
3,GATGATTGTTCTCCCAGCTGATGAATTATCTGCATCGAGTAAACAAATTTTCCTAATCTTTCTGTTCAAGCGCCATCTAC,1.27 RPM ratio (pull-down/input)
4,GATGATTGTTCTCCCAGCTGATGAATTGCCGTTGTCGAGTAAACAAATTTTCCTAATCTTTCTGTTCAAGCGCCATCTAC,1.16 RPM ratio (pull-down/input)
5,GATGATTGTTCTCCCAGCTGATGAATTGGGATGGTCGAGTAAACAAATTTTCCTAATCTTTCTGTTCAAGCGCCATCTAC,0.863 RPM ratio (pull-down/input)
6,GATGATTGTTCTCCCAGCTGATGAATTTTTACAATCGAGTAAACAAATTTTCCTAATCTTTCTGTTCAAGCGCCATCTAC,1.23 RPM ratio (pull-down/input)
7,GATGATTGTTCTCCCAGCTGATGAATTCCCGTGATCGAGTAAACAAATTTTCCTAATCTTTCTGTTCAAGCGCCATCTAC,0.851 RPM ratio (pull-down/input)
8,GATGATTGTTCTCCCAGCTGATGAATTGCCCCTTTCGAGTAAACAAATTTTCCTAATCTTTCTGTTCAAGCGCCATCTAC,0.958 RPM ratio (pull-down/input)
9,GATGATTGTTCTCCCAGCTGATGAATTCTGAATGTCGAGTAAACAAATTTTCCTAATCTTTCTGTTCAAGCGCCATCTAC,0.902 RPM ratio (pull-down/input)
10,GATGATTGTTCTCCCAGCTGATGAATTCGTGAAATCGAGTAAACAAATTTTCCTAATCTTTCTGTTCAAGCGCCATCTAC,0.972 RPM ratio (pull-down/input)
11,GATGATTGTTCTCCCAGCTGATGAATTGGGCTCATCGAGTAAACAAATTTTCCTAATCTTTCTGTTCAAGCGCCATCTAC,0.827 RPM ratio (pull-down/input)
12,GATGATTGTTCTCCCAGCTGATGAATTCCCACTGTCGAGTAAACAAATTTTCCTAATCTTTCTGTTCAAGCGCCATCTAC,0.786 RPM ratio (pull-down/input)
13,GATGATTGTTCTCCCAGCTGATGAATTCGAAGATTCGAGTAAACAAATTTTCCTAATCTTTCTGTTCAAGCGCCATCTAC,0.857 RPM ratio (pull-down/input)
14,GATGATTGTTCTCCCAGCTGATGAATTCCCAGGCTCGAGTAAACAAATTTTCCTAATCTTTCTGTTCAAGCGCCATCTAC,0.756 RPM ratio (pull-down/input)
15,GATGATTGTTCTCCCAGCTGATGAATTCGTAGAATCGAGTAAACAAATTTTCCTAATCTTTCTGTTCAAGCGCCATCTAC,0.926 RPM ratio (pull-down/input)
16,GATGATTGTTCTCCCAGCTGATGAATTCAACACATCGAGTAAACAAATTTTCCTAATCTTTCTGTTCAAGCGCCATCTAC,1.3 RPM ratio (pull-down/input)
17,GATGATTGTTCTCCCAGCTGATGAATTGCTATACTCGAGTAAACAAATTTTCCTAATCTTTCTGTTCAAGCGCCATCTAC,1.08 RPM ratio (pull-down/input)
18,GATGATTGTTCTCCCAGCTGATGAATTTTTCACCTCGAGTAAACAAATTTTCCTAATCTTTCTGTTCAAGCGCCATCTAC,0.928 RPM ratio (pull-down/input)
19,GATGATTGTTCTCCCAGCTGATGAATTGCGTCATTCGAGTAAACAAATTTTCCTAATCTTTCTGTTCAAGCGCCATCTAC,1.24 RPM ratio (pull-down/input)
20,GATGATTGTTCTCCCAGCTGATGAATTCAATCTGTCGAGTAAACAAATTTTCCTAATCTTTCTGTTCAAGCGCCATCTAC,0.934 RPM ratio (pull-down/input)
21,GATGATTGTTCTCCCAGCTGATGAATTCATGAGCTCGAGTAAACAAATTTTCCTAATCTTTCTGTTCAAGCGCCATCTAC,0.771 RPM ratio (pull-down/input)
